The supplement of paper PMC7826260
Some of the results follow. The data describe in vitro nicking of single-stranded DNA by Rep domains at 3 µM enzyme and 37 °C for 1 h; the strands have 90 letters, of which the middle is given. A value is the log2 ratio of uncut reads to the pool without enzyme; the lower, the more was cut; hits are not called. Counts are relative to all reads; values above 0 arise when much of the pool is cut.

Experiments:
Experiment in all cases: uncleaved DNA left, log2 of reads against the no-enzyme library (log2 ratio); higher = less cleavage (more negative = more Rep cleavage of the k-mer); sequences stand for … in CTCGTCCG…ACCGGAGA
[1] = tested on: T1, Rep nickase domain of Muscovy duck circovirus
T1 sequence (residues 1-111 of Rep, tag left off): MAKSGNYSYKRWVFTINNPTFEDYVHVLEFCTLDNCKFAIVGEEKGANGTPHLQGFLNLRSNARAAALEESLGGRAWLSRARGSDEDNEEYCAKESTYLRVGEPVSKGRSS
Method: (§1)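 A pool of 90-nt single-stranded DNAs with seven random bases just before the constant AC of the nick site (name = the seven bases) was cut by 3 µM recombinant His6-SUMO-tagged Rep nickase domain (300 nM DNA, 50 mM HEPES pH 8.0, 50 mM NaCl, 1 mM MnCl2, 1 h, 37 °C, three replicates). Uncut DNA was amplified and sequenced.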

[2] = tested on: T2, Rep nickase domain of banana bunchy top virus
T2 sequence (residues 1-94 of Rep, tag left off): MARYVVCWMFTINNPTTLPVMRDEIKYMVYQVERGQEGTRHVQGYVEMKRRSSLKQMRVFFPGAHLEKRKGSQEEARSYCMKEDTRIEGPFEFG
Method: as §1

[3] = tested on: T3, Rep nickase domain of cabbage leaf curl virus
T3 sequence (residues 1-116 of Rep, tag left off): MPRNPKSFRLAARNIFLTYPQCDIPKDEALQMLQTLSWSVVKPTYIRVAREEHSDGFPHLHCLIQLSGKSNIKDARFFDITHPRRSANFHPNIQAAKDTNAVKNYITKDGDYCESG
Method: as §1

[4] = tested on: T4, Rep nickase domain of chickpea chlorotic dwarf virus
T4 sequence (residues 1-124 of Rep, tag left off): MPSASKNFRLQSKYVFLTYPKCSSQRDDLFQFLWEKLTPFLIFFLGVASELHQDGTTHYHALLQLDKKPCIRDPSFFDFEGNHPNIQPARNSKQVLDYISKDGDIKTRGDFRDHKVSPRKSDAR
Method: as §1

[5] = tested on: T5, Rep nickase domain of faba bean necrotic yellows virus
T5 sequence (residues 1-98 of Rep, tag left off): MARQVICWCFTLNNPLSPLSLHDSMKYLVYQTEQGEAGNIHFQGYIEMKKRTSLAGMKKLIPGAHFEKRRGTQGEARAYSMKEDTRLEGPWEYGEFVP
Method: as §1

[6] = tested on: T6, Rep nickase domain of maize striate mosaic virus
T6 sequence (residues 1-117 of Rep, tag left off): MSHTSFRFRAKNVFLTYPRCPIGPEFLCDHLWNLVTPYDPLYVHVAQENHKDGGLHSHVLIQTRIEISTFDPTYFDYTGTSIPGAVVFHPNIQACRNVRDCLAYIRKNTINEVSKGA
Method: as §1

[7] = tested on: T7, Rep nickase domain of porcine circovirus 2
T7 sequence (residues 2-116 of Rep, tag left off): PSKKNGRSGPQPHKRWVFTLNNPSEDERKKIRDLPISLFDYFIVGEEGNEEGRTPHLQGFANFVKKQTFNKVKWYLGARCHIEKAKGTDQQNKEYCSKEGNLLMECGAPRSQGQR
Method: as §1

[8] = tested on: T8, Rep nickase domain of tomato golden mosaic virus
T8 sequence (residues 1-124 of Rep, tag left off): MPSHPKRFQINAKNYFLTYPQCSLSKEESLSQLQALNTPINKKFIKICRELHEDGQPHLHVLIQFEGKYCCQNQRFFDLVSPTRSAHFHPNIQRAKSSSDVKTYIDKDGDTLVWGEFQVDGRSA
Method: as §1

[9] = tested on: T9, Rep nickase domain of tomato yellow leaf curl virus
T9 sequence (residues 1-136 of Rep, tag left off): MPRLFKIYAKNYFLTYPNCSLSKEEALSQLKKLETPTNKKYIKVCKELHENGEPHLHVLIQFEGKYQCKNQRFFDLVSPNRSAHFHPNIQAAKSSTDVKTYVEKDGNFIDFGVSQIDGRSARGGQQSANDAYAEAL
Method: as §1

[10] = tested on: T10, Rep nickase domain of wheat dwarf virus
T10 sequence (residues 1-137 of Rep, tag left off): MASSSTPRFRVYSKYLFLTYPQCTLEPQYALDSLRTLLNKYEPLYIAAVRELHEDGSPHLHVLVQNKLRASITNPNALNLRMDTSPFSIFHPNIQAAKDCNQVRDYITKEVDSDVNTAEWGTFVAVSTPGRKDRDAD
Method: as §1

Sequence	uncleaved DNA left (log2) [1]	uncleaved DNA left (log2) [2]	uncleaved DNA left (log2) [3]	uncleaved DNA left (log2) [4]	uncleaved DNA left (log2) [5]	uncleaved DNA left (log2) [6]	uncleaved DNA left (log2) [7]	uncleaved DNA left (log2) [8]	uncleaved DNA left (log2) [9]	uncleaved DNA left (log2) [10]
CTCATTC	0.0959	0.0452	-0.169	-0.283	0.113	-0.966	0.0862	-0.0643	0.1	0.0677
CATTTTG	0.024	-0.0213	-0.683	-0.553	0.234	-1.23	0.122	-0.0282	0.0461	-0.00593
GGGTTTC	-0.0825	0.0357	0.528	1.44	-0.0992	1.98	0.0734	-0.0989	-0.0713	0.00452
TGCAGGC	0.000859	-0.0202	0.196	0.274	-0.0123	-0.239	0.0834	0.0304	0.0668	-0.0779
CACCGTA	0.0429	-0.0747	-0.215	-1.75	0.0327	-0.834	-0.384	-0.257	-0.0974	-0.14
CGTATAG	0.172	0.104	-0.651	-0.388	0.0512	-0.845	0.196	-0.0263	0.0783	0.00859
ATATGAT	-0.127	0.0803	0.091	0.862	0.0737	1.54	-0.552	0.167	-0.196	0.103
AGTGCTT	-0.043	-0.0544	0.0421	-0.0675	-0.0965	0.861	-2.44	0.0368	-0.0997	-0.141
AAAAAGC	0.103	0.204	-0.135	-0.267	0.0712	-1.08	0.319	0.157	0.164	0.0912
CGGGATT	0.00817	-0.0901	0.635	1.53	-0.0886	1.86	0.0147	0.057	0.00319	0.0452
CATTAAG	-0.0726	-0.0524	-0.544	0.832	-0.0343	-0.242	0.19	0.00404	0.0696	0.00983
CATACCC	-0.135	-0.0333	-0.0623	-1.43	-0.0388	-0.457	-0.741	-0.0657	-0.0188	-0.0482
TGGTGGA	-0.0968	-0.0627	0.349	0.286	0.0304	0.391	0.0616	0.065	-0.0445	0.0222
AATTAGC	-0.0433	-0.0178	-0.572	-0.72	-0.0167	-1.16	0.025	-0.11	-0.0263	-0.113
TCCACTA	0.0194	0.0396	0.034	-1.25	0.00377	-0.357	-0.0393	-0.0181	0.108	0.0541
GCATAGC	0.0958	-0.0506	-0.402	-0.249	0.11	-0.92	0.167	0.0603	0.186	0.0286
CTCTCTG	-0.0329	-0.0621	-0.269	-0.31	-0.049	-0.669	-0.0552	-0.0664	-0.166	-0.0435
GATTAAA	-0.254	-0.0154	0.228	0.613	-0.0504	0.931	-0.0992	0.195	0.0636	0.046
CACACTC	-0.0739	-0.14	-0.271	-1.02	0.0183	-0.651	-0.00992	-0.0661	-0.205	-0.0363
GGCACGC	0.0143	0.0657	0.603	1.32	0.0675	1.72	0.145	0.0451	0.0576	0.176
AGGCAGC	-0.00429	-0.0213	0.156	0.549	0.0266	0.0647	0.224	0.00645	-0.0449	-0.0128
GAGGACG	-0.0789	0.0109	0.328	1.06	-0.00899	0.617	0.126	0.0405	0.0741	0.0601
CATGTTG	0.209	0.0981	-0.412	-0.412	0.0496	-0.758	0.288	0.0277	0.136	-0.0155
CGAAGGT	0.0982	-0.0107	0.185	0.941	-0.0875	1.58	0.125	-0.0618	-0.0463	0.0587
AGTACTG	0.0164	0.00488	0.0228	0.708	-0.0131	1.7	0.0797	-0.0355	-0.0418	0.0694
TGCTCAA	0.106	0.181	0.16	0.196	0.0928	-0.208	0.0552	0.103	0.205	0.224
TCCCATG	-0.0377	0.0294	-0.362	-0.76	-0.093	-1.05	0.202	0.0189	-0.00653	-0.0767
GCCAGGT	0.0803	0.0372	0.313	1.01	0.153	1.23	0.0794	-0.00456	-0.0991	0.0606
GAAGAAC	0.114	0.0867	0.303	0.465	0.121	0.618	0.189	0.0734	0.18	0.137
CCACGCC	-0.0643	-0.17	-0.218	-0.387	-0.14	-0.763	-0.0861	-0.109	-0.133	-0.28
